Data taken from article PMC4814048.
No constants are given. Whether binding was seen depends on the method and setting. For some assays here: In cells and extracts the contact can be indirect. Some entries that bind do so weakly or less than the wild type. Sequences can lack the tags named with a protein.

T1: MexAM1_META1p1275, C-terminal triple FLAG-tagged (Methylobacterium extorquens AM1) (UniProt C5AYM3)
T1 sequence: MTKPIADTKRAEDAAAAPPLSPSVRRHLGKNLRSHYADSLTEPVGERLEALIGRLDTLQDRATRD

T2: MexAM1_META1p2700, C-terminal triple FLAG-tagged (Methylobacterium extorquens AM1) (UniProt C5ATE1)
T2 sequence: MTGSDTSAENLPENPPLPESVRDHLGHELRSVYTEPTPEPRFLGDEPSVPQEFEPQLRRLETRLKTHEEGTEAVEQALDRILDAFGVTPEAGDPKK

T3: NepR, C-terminal triple FLAG-tagged (Methylobacterium extorquens AM1) (UniProt C5AW20)
T3 sequence: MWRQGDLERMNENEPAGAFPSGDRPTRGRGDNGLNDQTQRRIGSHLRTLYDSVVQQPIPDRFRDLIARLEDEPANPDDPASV

T4: MexAM1_META2p0735, C-terminal triple FLAG-tagged (Methylobacterium extorquens AM1) (UniProt C5B547)
T4 sequence: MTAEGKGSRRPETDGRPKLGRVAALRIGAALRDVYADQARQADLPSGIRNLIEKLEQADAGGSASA

T5: MexAM1_META2p0735 (putative NepR homologue), bacterial two-hybrid fusion (Methylobacterium extorquens AM1) (UniProt C5B547)
T5 sequence: T4 sequence

T6: MexAM1_META1p1275 (putative NepR homologue), bacterial two-hybrid fusion (Methylobacterium extorquens AM1) (UniProt C5AYM3)
T6 sequence: T1 sequence

T7: MexAM1_META1p2700 (putative NepR homologue), bacterial two-hybrid fusion (Methylobacterium extorquens AM1) (UniProt C5ATE1)
T7 sequence: T2 sequence

T8: NepR, bacterial two-hybrid fusion (Methylobacterium extorquens AM1) (UniProt C5AW20)
T8 sequence: T3 sequence

B1: PhyR (protein, UniProt Q0PEV3 1-267)
chain: MSTAQLVVQHLPYLRRYARALTGSQVAGDAYVAATLETLVNEPETLGRSTNVKADLFRVFTRIWNSLSVNGHSDQVQHDLPAEVRLGQITPLPRQAFLLSCLEGFSEEDAGVILDVDVSKVRDLVDEAGRELAADMATEILIIEDEPLIAMDLEALVEGLGHNVIGVARTRTEAVKIASESKRPGLILADIQLADGSSGLDAVNDLLKTFEVPVIFITAYPERFLTGERPEPAFLIAKPFQPANVSAVISQALFFQQSARRREAHNA
B2: σ^EcfG1, full-length (FL), bacterial two-hybrid fusion (protein, UniProt C5ASQ2 1-244)
chain: MRNDTEATLDRPAMTDGRPKLSDSIRSHLGDHLRSVYDTLGAGEDTPSRFSELIGKLEAALKAQGERIDPEFRNGLLSAVPSLRAFALSLTSNPARSDDLVQDTLLKGWQHRARFQPGTNLNAWLFTILRNIFYSDHRKRVREVEDQDGSYAARLATAPHQGDRLDVEDLQTALAKLPPDQREALVLVGAEGVSYEEAATIMGCKVGTVKSRVSRARGRLAELLGYDEEDLSSDRLIQSAMPDA

How the values were obtained:
[1] = molecular target: T1, MexAM1_META1p1275, C-terminal triple FLAG-tagged (Methylobacterium extorquens AM1); assay: co-IP; lysate of M. extorquens AM1 producing C-terminal triple FLAG-tagged NepR or paralogue, in TBS (50 mM Tris-HCl pH 7.4, 150 mM NaCl); anti-FLAG M2 affinity gel, 1 h at room temperature; blot with anti-PhyR serum
[2] = molecular target: T2, MexAM1_META1p2700, C-terminal triple FLAG-tagged (Methylobacterium extorquens AM1); assay: as above
[3] = molecular target: T3, NepR, C-terminal triple FLAG-tagged (Methylobacterium extorquens AM1); assay: as above
[4] = molecular target: T4, MexAM1_META2p0735, C-terminal triple FLAG-tagged (Methylobacterium extorquens AM1); assay: as above
[5] = molecular target: T5, MexAM1_META2p0735 (putative NepR homologue), bacterial two-hybrid fusion (Methylobacterium extorquens AM1); assay: two-hybrid; bacterial two-hybrid in E. coli BTH101; nepR paralogues in pUT18, ecfG paralogues in pKNT25; LB with 1 mM IPTG and 40 μg/ml X-Gal, blue coloration after two days at 28°C; β-galactosidase activity of overnight liquid cultures
[6] = molecular target: T6, MexAM1_META1p1275 (putative NepR homologue), bacterial two-hybrid fusion (Methylobacterium extorquens AM1); assay: as above
[7] = molecular target: T7, MexAM1_META1p2700 (putative NepR homologue), bacterial two-hybrid fusion (Methylobacterium extorquens AM1); assay: as above
[8] = molecular target: T8, NepR, bacterial two-hybrid fusion (Methylobacterium extorquens AM1); assay: as above

binding [1]	binding [2]	binding [3]	binding [4]	binding [5]	binding [6]	binding [7]	binding [8]	Binder
binds	no binding	binds	binds					B1
				no binding	no binding	no binding	no binding	B2
